Experimental data: PubChem BioAssay AID504333 (National Center for Advancing Translational Sciences (NCATS), 2011)
Screen size: about 360,000 compounds; about 16,000 (4.4%) were called active. Inconclusive means that the source gave no clear call. Such entries were picked first, then a sample of the others. The call rests on the fitted dose curve; in most records, active means well fitted inhibition curve with a large enough effect; inconclusive means small, poorly fitted or top-dose-only effect; inactive means no such curve, though single readings can be large or run the other way. Potencies beside an inconclusive call are fits to weak or partial responses and may not hold up.
Further: nearly all actives have a fitted effect of over 60% in size.
On the % scale 0 is the no-effect control and ±100 the full control effect; potency means the concentration at half of the fitted maximal effect; tags describe the fitted curve by direction and shape.

These compounds were tested against Bromodomain adjacent to zinc finger domain protein 2B (Homo sapiens) (UniProt Q9UIF8) (assay: qHTS Assay for Inhibitors of BAZ2B). Conditions: AlphaScreen BAZ2B-H3K14Ac peptide displacement; activity change, negative = inhibition: at 114 µM (top of the series) unless noted.
UniProt Q9UIF8, sequence (Q9UIF8 whole entry, looked up, the tested form may be a part): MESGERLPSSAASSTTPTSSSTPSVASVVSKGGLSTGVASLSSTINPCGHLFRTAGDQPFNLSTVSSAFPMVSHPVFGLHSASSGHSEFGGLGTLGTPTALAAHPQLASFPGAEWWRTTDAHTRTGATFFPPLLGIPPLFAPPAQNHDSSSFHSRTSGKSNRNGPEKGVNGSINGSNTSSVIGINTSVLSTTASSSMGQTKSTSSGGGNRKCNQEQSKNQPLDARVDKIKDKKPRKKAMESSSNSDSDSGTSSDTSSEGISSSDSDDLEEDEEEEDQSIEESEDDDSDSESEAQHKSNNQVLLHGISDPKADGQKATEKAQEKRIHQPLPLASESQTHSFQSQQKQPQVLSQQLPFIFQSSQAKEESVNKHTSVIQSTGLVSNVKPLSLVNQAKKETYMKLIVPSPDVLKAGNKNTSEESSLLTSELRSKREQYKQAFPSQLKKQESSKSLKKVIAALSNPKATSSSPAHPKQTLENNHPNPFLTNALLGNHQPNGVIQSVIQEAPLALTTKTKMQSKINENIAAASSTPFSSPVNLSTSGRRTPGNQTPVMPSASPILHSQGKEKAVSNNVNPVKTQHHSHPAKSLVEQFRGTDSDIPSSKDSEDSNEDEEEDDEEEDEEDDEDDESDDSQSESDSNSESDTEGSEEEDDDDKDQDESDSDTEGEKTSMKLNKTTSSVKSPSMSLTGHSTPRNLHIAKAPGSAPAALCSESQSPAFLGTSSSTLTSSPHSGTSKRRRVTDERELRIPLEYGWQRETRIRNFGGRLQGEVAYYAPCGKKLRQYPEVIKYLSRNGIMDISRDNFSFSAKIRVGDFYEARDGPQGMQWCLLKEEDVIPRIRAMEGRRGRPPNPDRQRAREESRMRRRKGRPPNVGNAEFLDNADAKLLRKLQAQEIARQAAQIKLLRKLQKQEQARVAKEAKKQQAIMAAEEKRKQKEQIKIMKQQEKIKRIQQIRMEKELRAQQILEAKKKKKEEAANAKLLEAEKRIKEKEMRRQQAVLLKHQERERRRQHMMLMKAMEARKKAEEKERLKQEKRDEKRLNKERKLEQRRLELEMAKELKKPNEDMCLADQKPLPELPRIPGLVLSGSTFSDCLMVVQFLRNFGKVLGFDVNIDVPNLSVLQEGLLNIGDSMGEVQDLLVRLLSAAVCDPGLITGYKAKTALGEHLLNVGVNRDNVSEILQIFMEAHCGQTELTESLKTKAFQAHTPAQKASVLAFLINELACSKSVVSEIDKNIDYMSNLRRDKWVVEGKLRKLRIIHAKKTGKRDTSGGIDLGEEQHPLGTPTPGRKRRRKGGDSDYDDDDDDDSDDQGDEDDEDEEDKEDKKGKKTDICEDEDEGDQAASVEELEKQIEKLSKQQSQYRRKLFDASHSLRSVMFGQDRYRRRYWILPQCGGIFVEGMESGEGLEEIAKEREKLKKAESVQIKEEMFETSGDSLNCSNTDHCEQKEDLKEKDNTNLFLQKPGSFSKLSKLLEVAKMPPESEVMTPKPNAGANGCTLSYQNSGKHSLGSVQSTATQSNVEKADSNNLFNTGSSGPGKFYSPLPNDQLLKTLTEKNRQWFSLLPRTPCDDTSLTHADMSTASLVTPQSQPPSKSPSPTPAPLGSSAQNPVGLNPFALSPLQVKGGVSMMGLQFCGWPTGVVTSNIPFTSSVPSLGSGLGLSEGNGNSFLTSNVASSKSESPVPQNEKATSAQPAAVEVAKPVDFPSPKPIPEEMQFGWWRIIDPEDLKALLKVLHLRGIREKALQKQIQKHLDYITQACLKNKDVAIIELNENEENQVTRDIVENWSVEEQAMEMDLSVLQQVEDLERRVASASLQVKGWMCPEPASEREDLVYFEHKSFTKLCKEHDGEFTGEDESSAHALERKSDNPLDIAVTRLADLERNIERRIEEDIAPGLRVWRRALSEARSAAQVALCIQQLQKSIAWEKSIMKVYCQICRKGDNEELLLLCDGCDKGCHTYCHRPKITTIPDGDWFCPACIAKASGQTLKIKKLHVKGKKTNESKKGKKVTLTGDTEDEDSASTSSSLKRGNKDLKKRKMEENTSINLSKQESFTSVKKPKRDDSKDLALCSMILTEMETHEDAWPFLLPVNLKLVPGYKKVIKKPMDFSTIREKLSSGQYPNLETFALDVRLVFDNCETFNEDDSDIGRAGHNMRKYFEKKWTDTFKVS
Procedure, shortened: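 AlphaScreen displacement: compounds (up to 110uM) incubated 30 min at room temperature with a preformed 50 nM BAZ2B/50 nM biotinylated H3K14Ac peptide complex in PBS pH 7.4 with Tween-20. Donor and acceptor beads at 10 ug/mL final added, 20 min light-protected before reading.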
With `COc1ccc(S(=O)(=O)N/N=C(/C)c2ccc(Cl)cc2)cc1` the “activity change, negative = inhibition” value was inactive: 5.7%. `O=C1CCCC(O)=C1Sc1ccccc1C(=O)O` was tested, and the Potency was active: 79.4 µM. `CC(=O)c1ccc(NC(=O)CCn2cccn2)cc1` was tested, and the “activity change, negative = inhibition” value was inactive: -0.757%. For `COc1ccc2c(c1)-c1c(sn(-c3ccccc3)c1=S)C(C)(C)N2`, the Potency was active: 8.91 µM. In the case of `CCOc1cc(CNc2ccc(N3CCOCC3)cc2)cc(Br)c1OCC`, the Potency is reported as active: 17.8 µM. In the case of `COc1ccc(/C=C2\SC(=S)N(CCC(=O)NCCCn3ccnc3)C2=O)cc1`, the Potency is reported as active: 25.1 µM. `CC/C(C)=N/Nc1nc2c(c(=O)[nH]c(=O)n2C)n1CCc1ccccc1` was tested, and the “activity change, negative = inhibition” value was inactive: -19%. In the case of `Cc1ccc(C)c(S(=O)(=O)c2nnn3c2nc(NC2CCCC2)c2sccc23)c1`, the “activity change, negative = inhibition” value is reported as inactive: -20.5%. `Cc1ncc(CN2CCC(n3nccc3NC(=O)c3ccccc3)CC2)s1` was tested, and the “activity change, negative = inhibition” value was inactive: -13.4%. In the case of `O=C(OCC(=O)N(Cc1ccccc1)Cc1ccccc1)c1ccccc1NCCO`, the “activity change, negative = inhibition” value is reported as inactive: 6.23%. In the case of `COc1ccc(OC)c(C2C(C(=O)c3ccco3)=C(O)C(=O)N2CCN2CCOCC2)c1` (stereo not given), the Potency is reported as inconclusive: 89.1 µM [inhibitor, single point]. In the case of `N=c1n(CC(=O)c2ccc(Br)s2)c2ccccc2n1Cc1ccccc1`, the “activity change, negative = inhibition” value is reported as inactive: -37.1%. With `COc1ccc(CCN2CC(C(=O)N(C)CC(=O)Nc3ccc(Cl)c(C(F)(F)F)c3)CC2=O)cc1OC` (stereo not given) the Potency was inconclusive: 89.1 µM [inhibitor, single point]. For `COc1cc(OC)cc(-n2nnnc2SCC(=O)NCc2cccs2)c1`, the Potency was inconclusive: 63.1 µM [inhibitor, partial curve, poor fit]. With `CCN1CCN(Cc2ccc(NC(=O)Nc3cccs3)cc2)CC1` the Potency was inconclusive: 89.1 µM [inhibitor, single point]. For `Cc1ccc(CSc2ncc(Cl)c(C(=O)Nc3nnc(C)s3)n2)cc1`, the “activity change, negative = inhibition” value was inactive: -12.3%. For `CCN1Cc2c(/C=C/c3ccccc3)nc3ccc(OC)cc3c2N(c2cccc(Cl)c2)C1`, the Potency was inconclusive: 70.8 µM [inhibitor, single point]. With `Oc1ccc(Cl)cc1-c1cc(-c2ccco2)[nH]n1` the Potency was active: 39.8 µM. In the case of `COc1ccc(OC)c(NC(=O)C2CCCN(S(C)(=O)=O)C2)c1` (stereo not given), the Potency is reported as inconclusive: 89.1 µM [inhibitor, single point]. With `C/C(=N/NC(=S)Nc1ccccc1)c1ccc2c(c1)OCO2` the Potency was inconclusive: 22.4 µM [inhibitor, full curve, poor fit]. With `COc1ccc(N2CCN(Cc3nc(Cc4cccc(F)c4)no3)C(C)C2)cc1` (stereo not given) the Potency was active: 25.1 µM. For `O=C(CN1C(=O)CCC1=O)Nc1nc(-c2ccccn2)cs1`, the Potency was active: 5.62 µM. In the case of `Cc1ccc2c(c1)C1CN(C)CCC1N2C(=O)Nc1ccc(Cl)cc1` (stereo not given), the “activity change, negative = inhibition” value is reported as inactive: 5.89%. For `CCOc1ccc(C(=O)NCC(=O)NCC(c2cccs2)N2CCOCC2)cc1` (stereo not given), the “activity change, negative = inhibition” value was inactive: 10.6%. With `Oc1ccc(/C=N/Nc2ccnc3cc(Cl)ccc23)c(O)c1O` the Potency was active: 44.7 µM. For `Cc1cccc(C(=O)NNC(=O)c2ccc(NS(=O)(=O)c3cccs3)cc2)c1C`, the “activity change, negative = inhibition” value was inactive: -11.6%. `CCC1=[N+](CC(=O)c2ccc(C)cc2)CCn2cccc21` was tested, and the Potency was inconclusive: 89.1 µM [inhibitor, single point]. For `Cc1ccc(CN2C(=O)c3ccccc3Sc3ccc(C(=O)NCCN4CCOCC4)cc32)cc1`, the Potency was inconclusive: 79.4 µM [inhibitor, single point]. `CCOC(=O)c1cc2oc(C)cc2n1CC(=O)OC1CCCCC1` was tested, and the Potency was inconclusive: 35.5 µM [inhibitor, partial curve]. For `Cc1cc(C)c2ccc(NN)nc2c1O`, the “activity change, negative = inhibition” value was inactive: 7.38%. `CCn1c(SCC(=O)Nc2ccc3c(c2)n(C)c(=O)n3C)nnc1-c1ccncc1` was tested, and the Potency was inconclusive: 70.8 µM [inhibitor, single point]. `O=C(CSc1ncc(-c2ccccc2)n1C1CCCC1)N1CCc2ccccc21` was tested, and the Potency was inconclusive: 8.91 µM [inhibitor, full curve]. With `CN(C)c1ncc(CN2CCC(C(=O)Nc3ccc(-n4cccn4)cc3)CC2)s1` the “activity change, negative = inhibition” value was inactive: 1.07%. In the case of `CCc1nnc(NC(=O)CSc2nc3cc(OC)c(OC)cc3cc2C)s1`, the “activity change, negative = inhibition” value is reported as inactive: -17.9%. `CCCn1nc(C(=O)Nc2ccc(S(=O)(=O)Nc3ncccn3)cc2)c2ccccc2c1=O` was tested, and the Potency was inconclusive: 79.4 µM [inhibitor, single point]. `O=S(=O)(O/N=C1\CCCc2ccccc21)c1ccc(Cl)cc1` was tested, and the Potency was inconclusive: 79.4 µM [inhibitor, single point]. For `O=[N+]([O-])c1ccc2c(c1)N([O-])C1(CCCCC1)[N+]2=O`, the Potency was active: 39.8 µM. In the case of `COc1cc(C2C(C(C)=O)=C(O)C(=O)N2Cc2ccccc2)ccc1O` (stereo not given), the “activity change, negative = inhibition” value is reported as inactive: -23.5%. `Cc1ccc(NC(=O)CC2Oc3ccccc3NC2=O)cc1C` (stereo not given) was tested, and the “activity change, negative = inhibition” value was inactive: -14.5%. In the case of `Cc1ccccc1-c1nnc(SCC(=O)N(CC(C)C)c2c(N)n(CC(C)C)c(=O)[nH]c2=O)n1C`, the “activity change, negative = inhibition” value is reported as inactive: -6.79%. For `COc1ccc(C2=C(N3CCN(c4cccc(C)c4C)CC3)c3ccccc3C2=O)cc1`, the Potency was active: 2.24 µM. With `Cc1ccc2c(c1)c(C)c(C)n2CC(O)Cn1nc(C)c(Br)c1C` (stereo not given) the Potency was active: 44.7 µM. In the case of `Cc1cccc(NC(=O)Cn2c(O)c(N=NC(=O)c3ccccc3O)c3ccccc32)c1`, the Potency is reported as active: 79.4 µM. In the case of `CCOc1ccc(Cn2ccnc2CCl)cc1[N+](=O)[O-]`, the Potency is reported as inconclusive: 79.4 µM [inhibitor, single point]. For `Cc1cccc(N2CCN(CCCNC(=O)c3ccc(NC(=O)C4=CSCCO4)cc3)CC2C)c1` (stereo not given), the Potency was inconclusive: 31.6 µM [inhibitor, full curve]. In the case of `Cc1c(C(=O)NCc2cccc(Cl)c2)sc2nc3n(c(=O)c12)CCCC3`, the Potency is reported as active: 17.8 µM. For `Cc1cccc(NC(=O)C2CCCN2S(=O)(=O)c2ccc3nc(-c4ccccc4)[nH]c3c2)c1` (stereo not given), the Potency was inconclusive: 44.7 µM [inhibitor, partial curve]. `COc1cc(/C=C2/SC(=S)N(Cc3ccccc3)C2=O)ccc1OS(C)(=O)=O` was tested, and the Potency was inconclusive: 10 µM [inhibitor, full curve, poor fit]. `O=c1ccc(NS(=O)(=O)c2ccccc2Cl)cn1Cc1ccc(Cl)c(Cl)c1` was tested, and the Potency was active: 56.2 µM. In the case of `Cc1ccc2c(c1)c1c(c(=O)n(-c3ccccc3)c(=O)n1CC(=O)NCC1CCCO1)n2C` (stereo not given), the Potency is reported as inconclusive: 79.4 µM [inhibitor, single point]. For `Cc1ccc(NC(=O)CN(C)C(=O)c2cccc(S(=O)(=O)NCc3ccco3)c2)cc1`, the Potency was inconclusive: 56.2 µM [inhibitor, partial curve]. In the case of `CCCCNC(=O)CCCCCn1c(=O)[nH]c2ccccc2c1=O`, the “activity change, negative = inhibition” value is reported as inactive: 5.06%. For `COc1ccccc1C(CNC(=O)c1cc(C)nc2ccccc12)N(C)C` (stereo not given), the “activity change, negative = inhibition” value was inactive: 1.35%. With `Cc1ccc(S(=O)(=O)c2nnn3c2nc(NCc2ccc4c(c2)OCO4)c2sccc23)cc1C` the Potency was inconclusive: 79.4 µM [inhibitor, single point]. `O=C(Nc1cccc(Cl)c1)C1C2C=CC3(O2)C1C(=O)N(CCCN1CCCCC1)C3C(=O)NC1CCCCC1` (stereo not given) was tested, and the “activity change, negative = inhibition” value was inactive: 2.42%. For `Cc1ccc2occ(/C=N/NC(=O)[C@@H](N)Cc3ccccc3)c(=O)c2c1`, the Potency was inconclusive: 22.4 µM [inhibitor, full curve]. For `CCOc1[nH]n(-c2ccc(Cl)cc2)c(=O)c1C=NCc1cccnc1`, the Potency was inconclusive: 79.4 µM [inhibitor, single point]. `COc1ccc(C(C)=O)cc1COC(=O)Cc1cc(OC)c(OC)c(OC)c1` was tested, and the Potency was inconclusive: 3.55 µM [inhibitor, single point]. With `O=C(N/C(=C/c1cccc(Br)c1)c1nc(=S)[nH][nH]1)c1ccccc1` the Potency was inconclusive: 44.7 µM [inhibitor, partial curve]. For `COc1ccc(CC(=O)N/N=C(\C)c2ccccn2)cc1`, the Potency was inconclusive: 89.1 µM [inhibitor, single point]. In the case of `N#CC1=C2N=C(N)c3ccccc3N2C2=C(C(=O)CCC2)C1c1ccccc1F` (stereo not given), the Potency is reported as inconclusive: 56.2 µM [inhibitor, partial curve]. For `O=C(NCc1cnn(-c2ccc(F)cc2)c1)C1CCC(=O)N(C2CC2)C1` (stereo not given), the “activity change, negative = inhibition” value was inactive: 1.58%. For `Cn1cccc1Cc1nnc(SCC(=O)NCc2ccccc2Cl)n1-c1ccc(F)cc1`, the Potency was inconclusive: 44.7 µM [inhibitor, partial curve]. `CCNC(=O)C1CCN(S(=O)(=O)c2ccc3c(c2)CCCN3C(C)=O)CC1` was tested, and the “activity change, negative = inhibition” value was inactive: 9.99%. `CNc1nc2sc3c(c2c(=O)n1C)CC(C)(C)SC3` was tested, and the activity change, negative = inhibition was inconclusive: -66.9% [inhibitor]. `N#Cc1nc(COc2ccc(F)cc2)oc1N1CCC(Cc2ccccc2)CC1` was tested, and the Potency was inconclusive: 10 µM [inhibitor, full curve]. `CC(=O)Nc1sc(N/N=C/c2ccc(C)cc2)nc1-c1ccc(C)cc1` was tested, and the Potency was inconclusive: 15.8 µM [inhibitor, full curve]. For `CCOc1ccccc1CNC(=O)C1CCCN(c2nn3c(=O)cc(C)nc3s2)C1` (stereo not given), the Potency was inconclusive: 3.55 µM [inhibitor, full curve]. `CCOc1cc(CN2CCN(C(=O)CC(C)C)CC2)ccc1OC` was tested, and the “activity change, negative = inhibition” value was inactive: 14.7%. In the case of `Clc1cccc(CSc2nnc(-c3cccnc3)n2Cc2ccco2)c1`, the “activity change, negative = inhibition” value is reported as inactive: 6.09%. For `Cc1ccccc1-c1nc(CN2CCC(C(=O)NCc3ccc(F)cc3)CC2)c(C)o1`, the Potency was inconclusive: 79.4 µM [inhibitor, partial curve]. For `Clc1ccccc1CN1CCSCC1`, the Potency was inconclusive: 79.4 µM [inhibitor, single point]. With `CCOC(=O)c1c(NC(=O)COC(=O)CNC(=O)c2ccco2)sc(C)c1C` the Potency was inconclusive: 79.4 µM [inhibitor, single point]. In the case of `COc1ccccc1NC(=O)N1CCN(C)CC1`, the Potency is reported as active: 50.1 µM. In the case of `Cc1ccn2c(Nc3ccc4c(c3)OCCO4)c(-c3ccc(C)o3)nc2c1`, the Potency is reported as active: 31.6 µM.
